Test results as given in the supplement of paper PMC10338343.
± gives the standard deviation. The entries are a selection whose mix differs from that of the whole data set.

System: MIWI (PIWIL1) piRISC loaded with L1MC piRNA (30 nt)
Experiment: pre-steady-state target cleavage rate (min^-1); MIWI and MILI are mouse PIWI proteins and EfPiwi is from a freshwater sponge; tags in brackets are library labels; higher = faster piRNA-guided slicing of the target
Conditions: guide: L1MC piRNA 5'p-UAACUAAAUACUAUGCAAGCUGUAGGUCCU
How it was run: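 Using HEPES–potassium acetate buffer at 33 °C, 1 nM active affinity-purified piRISC with a single synthetic guide was mixed with 0.1 nM transcribed, DNA-blocked target RNA library for 0–8 or 0–960 min, with or without 500 nM GTSF1 partner protein. Uncleaved targets were sequenced and normalised to depth and to weakly complementary targets, and three trials were pooled with k3 capped at 0.0001 min^-1. A burst-and-steady-state fit gave the pre-steady-state cleavage rate.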

[1] = auxiliary factor: 500 nM mouse GTSF1
[2] = auxiliary factor: none (no GTSF1)

Sequence: UCCUCUACAGCUUGCAUAGUAUUUAGUUA
- pre-steady-state target cleavage rate [1]: 1.34 ± 0.047
- pre-steady-state target cleavage rate [2]: 0.0659 ± 0.011

Sequence: UCCACCUGACAGCUUGCAUAGUAUUUAGUUA
- pre-steady-state target cleavage rate [1]: 0.836 ± 0.081
- pre-steady-state target cleavage rate [2]: 0.0455 ± 0.0084

Sequence: UCCUGGUAAGCUUGCAUAGUAUUUAGUUA
- pre-steady-state target cleavage rate [1]: 0.979 ± 0.043
- pre-steady-state target cleavage rate [2]: 0.0615 ± 0.014

Sequence: UGGACCUAGAGCUUGCAUAGUAUUUAGUUA
- pre-steady-state target cleavage rate [1]: 1.03 ± 0.073
- pre-steady-state target cleavage rate [2]: 0.0561 ± 0.0095

Sequence: UCCACGAACAGCUUGCAUAGUAUUUAGUAA
- pre-steady-state target cleavage rate [1]: 0.472 ± 0.041
- pre-steady-state target cleavage rate [2]: 0.0317 ± 0.0067

Sequence: UGGACCUACAGCAUGCAUAGUAUUUAGAAA
- pre-steady-state target cleavage rate [1]: 0.5 ± 0.061
- pre-steady-state target cleavage rate [2]: 0.00651 ± 0.0026

Sequence: UGGACCAACAGCUUGCAUAGAAUUUAGUUA
- pre-steady-state target cleavage rate [1]: 0.357 ± 0.021
- pre-steady-state target cleavage rate [2]: 0.0276 ± 0.0072

Sequence: UCGACCUACAGCUUGGAUACUAUUUAGUUA
- pre-steady-state target cleavage rate [1]: 0.357 ± 0.032
- pre-steady-state target cleavage rate [2]: 0.0217 ± 0.0043

Sequence: UCCUGGAUGUGCUUGGAUACUAUUUAGUUA
- pre-steady-state target cleavage rate [1]: 0.031 ± 0.011
- pre-steady-state target cleavage rate [2]: 0.0033 ± 0.0029

Sequence: UCCUGGAUCAGCUAGCAUAGUAUUUAGUUA
- pre-steady-state target cleavage rate [1]: 0.962 ± 0.075
- pre-steady-state target cleavage rate [2]: 0.0128 ± 0.0027

Sequence: AGGACCUACAGGUUGCAUAGUUUUUAGUUA
- pre-steady-state target cleavage rate [1]: 0.271 ± 0.018
- pre-steady-state target cleavage rate [2]: 0.0236 ± 0.0037

Sequence: UCCUGGAUGUGCUUGCAUAGAAUUUAGAUA
- pre-steady-state target cleavage rate [1]: 0.0127 ± 0.0058
- pre-steady-state target cleavage rate [2]: 0.00393 ± 0.0028

Sequence: UGGACCUACUGCUUGCAUAGUAUUAAGUUA
- pre-steady-state target cleavage rate [1]: 0.597 ± 0.03
- pre-steady-state target cleavage rate [2]: 0.0293 ± 0.0056

Sequence: UGGACCUAGAGCUUGCAUAGUAUUAAGUUA
- pre-steady-state target cleavage rate [1]: 0.547 ± 0.052
- pre-steady-state target cleavage rate [2]: 0.0189 ± 0.0049

Sequence: ACGACCUACAGGUUGCAUAGUAUUUAGUUA
- pre-steady-state target cleavage rate [1]: 1.29 ± 0.057
- pre-steady-state target cleavage rate [2]: 0.0656 ± 0.012

Sequence: AGGACCUUCUGCUUGCAUAGUAUUUAGUUA
- pre-steady-state target cleavage rate [1]: 1.24 ± 0.042
- pre-steady-state target cleavage rate [2]: 0.082 ± 0.015

Sequence: UCCUGCUACAGCUUGCAUUGUUUUUAGUUA
- pre-steady-state target cleavage rate [1]: 0.0845 ± 0.0095
- pre-steady-state target cleavage rate [2]: 0.00988 ± 0.0021

Sequence: UCCUCCAACAGCUUGCAUUGUAUUUAGUUA
- pre-steady-state target cleavage rate [1]: 0.976 ± 0.031
- pre-steady-state target cleavage rate [2]: 0.0321 ± 0.0066

Sequence: UCCUGGAACAGGUUGCUUAGUAUUUAGUUA
- pre-steady-state target cleavage rate [1]: 1.03 ± 0.065
- pre-steady-state target cleavage rate [2]: 0.0105 ± 0.0024

Sequence: UCCUGGAACAGCUUGCAUAGUAUUUUGUUA
- pre-steady-state target cleavage rate [1]: 0.597 ± 0.048
- pre-steady-state target cleavage rate [2]: 0.0384 ± 0.0073

Sequence: UGGUCCUACAGGUUGCAUAGUAUUUAGUUA
- pre-steady-state target cleavage rate [1]: 0.758 ± 0.055
- pre-steady-state target cleavage rate [2]: 0.0377 ± 0.0066

Sequence: UCGACCAUGAGCUUGCAUAGUAUUUAGUUA
- pre-steady-state target cleavage rate [1]: 0.876 ± 0.045
- pre-steady-state target cleavage rate [2]: 0.0511 ± 0.0092

Sequence: UCCUGGAACAGCUUGCAUAGUUUUUACUUA
- pre-steady-state target cleavage rate [1]: 0.125 ± 0.021
- pre-steady-state target cleavage rate [2]: 0.0143 ± 0.0048

Sequence: UCCUGGAACAGCAUGCAUAGUAUUUAGUAA
- pre-steady-state target cleavage rate [1]: 0.695 ± 0.061
- pre-steady-state target cleavage rate [2]: 0.0107 ± 0.0026

Sequence: UCCUCGUACAGCUUGCAUAGUAUUUACUUA
- pre-steady-state target cleavage rate [1]: 0.248 ± 0.022
- pre-steady-state target cleavage rate [2]: 0.0279 ± 0.0037

Sequence: UCCUGCUAAGCUUGCAUAGUAUUUAGUUA
- pre-steady-state target cleavage rate [1]: 0.442 ± 0.042
- pre-steady-state target cleavage rate [2]: 0.0247 ± 0.0051

Sequence: UCGACCUACAGCUUGCAUAGUAAAUAGUAA
- pre-steady-state target cleavage rate [1]: 0.433 ± 0.054
- pre-steady-state target cleavage rate [2]: 0.0028 ± 0.0025

Sequence: UCCUGGAUGAGCAUGCAUUGUAUUUAGUUA
- pre-steady-state target cleavage rate [1]: 0.0771 ± 0.0069
- pre-steady-state target cleavage rate [2]: 0.00614 ± 0.0027

Sequence: UCCUGGAUGAGCAUGCAUAGUAUUUUGUUA
- pre-steady-state target cleavage rate [1]: 0.214 ± 0.027
- pre-steady-state target cleavage rate [2]: 0.00621 ± 0.0023

Sequence: UCGACCUAAGCUUGCAUAGUAUUUAGUUA
- pre-steady-state target cleavage rate [1]: 1.18 ± 0.055
- pre-steady-state target cleavage rate [2]: 0.0432 ± 0.009

Sequence: UCGACCUAGUGCUUGCAUAGUAUUUACAAA
- pre-steady-state target cleavage rate [1]: 0.168 ± 0.025
- pre-steady-state target cleavage rate [2]: 0.00328 ± 0.0015

Sequence: UCCUGGAUCAGCUUGCAUAGUAUGUAGUUA
- pre-steady-state target cleavage rate [1]: 0.587 ± 0.027
- pre-steady-state target cleavage rate [2]: 0.024 ± 0.0057

Sequence: UCCUCCAACACCUUGCAUAGUAUUUAGUUA
- pre-steady-state target cleavage rate [1]: 0.699 ± 0.053
- pre-steady-state target cleavage rate [2]: 0.0263 ± 0.0048
